# Laboratory results published in publication PMC4336329 (PLoS ONE, 2015).
# Hit rate of the full screen: of about 310,000 compounds, about 2,200 (0.71%) showed an effect of 50% or more. The effect is printed as a negative number. Some of the results follow.
# Target: human ether-à-go-go-related gene (hERG) potassium channel (human, UniProt Q12809)
# Test: primary screen, population patch clamp on CHO cells stably expressing hERG
# Chain of human ether-à-go-go-related gene (hERG) potassium channel (Q12809 whole entry, looked up): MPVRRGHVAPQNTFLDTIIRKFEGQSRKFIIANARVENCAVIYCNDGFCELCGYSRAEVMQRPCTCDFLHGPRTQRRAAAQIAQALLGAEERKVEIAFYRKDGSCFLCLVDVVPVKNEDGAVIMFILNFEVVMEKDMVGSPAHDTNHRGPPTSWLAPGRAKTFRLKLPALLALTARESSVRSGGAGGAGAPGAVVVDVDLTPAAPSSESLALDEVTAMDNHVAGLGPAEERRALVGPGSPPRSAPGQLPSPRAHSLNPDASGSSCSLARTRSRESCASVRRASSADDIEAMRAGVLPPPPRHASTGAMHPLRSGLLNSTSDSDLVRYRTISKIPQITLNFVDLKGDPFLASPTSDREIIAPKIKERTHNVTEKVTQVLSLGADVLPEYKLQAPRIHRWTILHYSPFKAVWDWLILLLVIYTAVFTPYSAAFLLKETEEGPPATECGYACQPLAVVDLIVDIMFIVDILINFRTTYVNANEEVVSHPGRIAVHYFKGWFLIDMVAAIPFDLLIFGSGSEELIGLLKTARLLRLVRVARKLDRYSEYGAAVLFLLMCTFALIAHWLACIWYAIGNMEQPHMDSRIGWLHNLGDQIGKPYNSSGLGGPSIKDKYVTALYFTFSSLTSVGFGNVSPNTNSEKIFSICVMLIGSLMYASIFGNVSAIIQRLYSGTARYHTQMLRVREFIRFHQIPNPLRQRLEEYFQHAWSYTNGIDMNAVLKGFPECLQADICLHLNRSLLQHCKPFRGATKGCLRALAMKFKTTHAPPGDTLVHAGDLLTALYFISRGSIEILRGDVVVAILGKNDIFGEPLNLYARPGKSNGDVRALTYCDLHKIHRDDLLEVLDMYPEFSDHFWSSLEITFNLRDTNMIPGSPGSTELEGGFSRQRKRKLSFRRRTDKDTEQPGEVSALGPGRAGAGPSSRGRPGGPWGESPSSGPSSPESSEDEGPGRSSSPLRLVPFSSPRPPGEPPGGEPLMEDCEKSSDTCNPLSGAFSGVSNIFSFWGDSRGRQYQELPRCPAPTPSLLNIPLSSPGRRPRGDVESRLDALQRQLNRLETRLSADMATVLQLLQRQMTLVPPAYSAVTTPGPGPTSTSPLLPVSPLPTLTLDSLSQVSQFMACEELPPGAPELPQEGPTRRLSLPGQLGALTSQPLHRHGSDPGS
row,SMILES,"hERG current change (%, negative = inhibition) at 1uM [%]"
1,C[C@H](NC(=O)c1nc[nH]c1C(=O)N[C@@H](Cc1ccccc1)C(=O)OCc1ccccc1)c1ccccc1,10.7
2,Cc1cc(C(=O)N[C@H](c2ccccc2)[C@@]2(C)C[C@@H]2[C@@H](C)C(=O)Nc2ccc3ccccc3c2)no1,4.33
3,O=C(C1CC(c2ccc(F)cc2)=NO1)N1CCCc2ccccc21 (stereo not drawn),5.13
4,Cc1cc(=O)oc2cc(OCC(=O)NC3CC(C)(C)NC(C)(C)C3)c(Cl)cc12,21.2
5,COC(=O)c1cc(CSc2nnc(-c3ccccc3)c(-c3ccccc3)n2)oc1C,13.4
6,CC(=O)NCCc1ccc(S(=O)(=O)Nc2ccc3c(c2)OCCO3)cc1,14.4
7,COc1cccc(-c2nc3ccccc3s2)c1,9.73
8,Cc1nn(-c2ccccc2)c(C)c1NC(=O)COC(=O)c1ccccc1OC(F)F,16
9,CSc1cccc(CN2CCN(Cc3ccccc3)C(CCO)C2)c1 (stereo not drawn),-1.33
10,Cc1ccc(Sc2oc(/C=N/n3cnnc3)cc2Br)cc1,8.72
11,COc1nc(N)nc(NC23CC4CC(CC(C4)C2)C3)n1,-14.4
12,Cc1ccc(C(=O)NC(C)CCc2ccccc2)cc1[N+](=O)[O-] (stereo not drawn),-0.573
13,COCCCNC(=O)c1cc(S(=O)(=O)N2CCOCC2)ccc1SCc1cccc(OC)c1OC,-11.1
14,CC(C)(C)OC(=O)N1CCC(c2c(C(=O)NC3CC3)cnn2-c2ccccc2)CC1,10.5
15,COc1ccc(N(CC(=O)NC2CCCCCC2)S(=O)(=O)c2c(C)nn(C)c2C)cc1,-5.15
16,O=C(CS(=O)c1ccc(C(F)(F)F)cc1[N+](=O)[O-])Oc1ccc(Cl)cc1 (stereo not drawn),19.2
17,N#Cc1ccc(Cl)cc1NC(=O)CNCc1cccs1.O=C(O)C(=O)O,1.05
18,O=C1c2ccccc2-c2nc3ccccc3nc21,-9.46
19,CCc1sc(NS(C)(=O)=O)nc1-c1ccccc1,-1.55
20,Nc1ccccc1SCc1cc([N+](=O)[O-])cc2c1OCOC2,0.0801
21,CCN(CC)S(=O)(=O)c1cc(NC(=O)CNc2cccc(S(=O)(=O)N3CCCC3)c2)ccc1C,1.89
22,CNC(=O)C(=O)NCC1OCCCN1S(=O)(=O)c1cccs1 (stereo not drawn),6.32

row,SMILES,"hERG current change (%, negative = inhibition) at 1uM [%]"
1,Cc1cc(C)n(/N=C/c2ccccc2)c(=O)c1C#N,16.9
2,Cc1ccc(NC(=O)c2cccc(S(=O)(=O)N3CCN(C)CC3)c2)cc1F,1.1
3,Cc1cc(=O)c2c(C)nn(-c3ccccc3)c2[nH]1,7.95
4,O=C(O)C1CC(=O)N(c2ccc3c(c2)OCCO3)C1 (stereo not drawn),6.4
5,CCC(=O)N1CCN(c2nc(CC)nc3sc4c(c23)CCCC4)CC1,-1.87
6,CCOc1ccccc1OCC(=O)Nc1ccc(S(=O)(=O)Nc2ncccn2)cc1,7.46
7,O=C(O)CNC(=S)NCc1ccccc1,10.5
8,CCN(CC)c1nc(NN)nc(Nc2ccc(C)c(Cl)c2)n1,11.7
9,CCn1c(C(C)NC(=O)Cc2ccccc2)nc2ccccc21 (stereo not drawn),10.8
10,O=S(=O)(NCCNc1ncc(C(F)(F)F)cc1Cl)C(F)(F)F,-5.55
11,C/C(Cl)=C\Cn1c(O)c(N=NC(N)=S)c2cc(Br)ccc21,14.7
12,CSc1ccc(/C=C/C(=O)c2c(O)cc(C)oc2=O)cc1,9.03
13,COc1ccc(CCNC(=O)c2ccc(CNc3nc(=S)[nH]c4ccccc34)cc2)cc1OC,8.17
14,COc1cc(-c2c(C#N)c(N)nc3c2CCCC3)cc(OC)c1OC,2.13
15,O=C(COc1ncnc2ccc(Br)cc12)Nc1ccc(N2CCOCC2)cc1,4.29
16,O=C(NC1CCCCC1)C(c1ccncc1)N(Cc1ccccc1)C(=O)c1ccc(-c2ccccc2)[nH]1 (stereo not drawn),15.6
17,CCOC(=O)C1CCCN(c2nc3ccccc3nc2C(C#N)C(=O)OCC)C1 (stereo not drawn),7.03
18,COCCCN(C(=O)CCSc1ccc(F)cc1)c1c(N)n(Cc2ccccc2)c(=O)[nH]c1=O,10.1
19,O=C(NCCN1C(=O)S/C(=C\c2ccccc2F)C1=O)C1=COCCO1,3.53
20,CCOC(=O)c1sc(NC(=O)CN2C(=O)NC3(CC(C)CC(C)(C)C3)C2=O)c(C(=O)OCC)c1C (stereo not drawn),10.6
21,COc1ccccc1CNC(=O)C(=O)NCC1OCCN1C(=O)c1ccc(Cl)cc1 (stereo not drawn),3.47
22,C=Cc1ccc(C(=O)N2CCCC(CCC(=O)N3CCN(c4ccccn4)CC3)C2)cc1 (stereo not drawn),10.2

row,SMILES,"hERG current change (%, negative = inhibition) at 1uM [%]"
1,CNNC(=S)Nc1cccc(SC)c1,14.3
2,CCOc1ccc(C(=O)NCc2ccco2)cc1OCC,11.8
3,S=C1NCCNC(=S)NCCOCCN1,13.3
4,Cc1nc([N+](=O)[O-])cn1CC(=O)Nc1ccc(Cl)cc1,14.3
5,Cc1ccccc1C(=O)OCCCN=C1NS(=O)(=O)c2ccccc21,1.75
6,CC(=O)c1c(C)[nH]c(C(=O)OCn2nnc3ccccc3c2=O)c1C,10.7
7,CC(C)[C@H](NC(=O)[C@H]1N2C(=O)c3ccccc3C2SC1(C)C)C(=O)NCc1ccco1 (stereo partly drawn),11.4
8,COCCN(C(=S)Nc1ccc(C(C)C)cc1)C(C)c1cccs1 (stereo not drawn),10.1
9,Cc1c(NC(=O)C(C)OC(=O)/C=C/c2ccc(OC(F)F)cc2)c(=O)n(-c2ccccc2)n1C (stereo not drawn),4.66
10,CN(C)c1ccc(/C=C(/C(=O)c2ccc(Cl)cc2Cl)n2cncn2)cc1,15.7
11,Cn1c(=O)c(C(=O)Nc2ccccc2S(N)(=O)=O)c(O)c2ccccc21,3.42
12,COc1cc(Cl)c([C@@H]2C[C@H]3CN(c4ccccc4)C(=O)[C@]34CCCN24)cc1OC,-47.3
13,C=CCNC(=O)Nc1ccc(Br)cc1Cl,14.9
14,O=C(CNC(=O)/C(=C/c1ccccc1)NC(=O)c1ccc(Br)cc1)OCc1ccccc1,2.24
15,Cc1c(O)ccc2c(CC(=O)N[C@@H](Cc3ccccc3)C(=O)O)cc(=O)oc12,14.3
16,Cl.OCCNCc1c(OCc2ccc(Cl)cc2)ccc2ccccc12,5.05
17,Cc1ccc2nc(/C(C#N)=C/c3ccc(O)c(O)c3)[nH]c2c1,-1.27
18,CCCCN(Cc1ccccc1)C(=O)C1CCN(S(=O)(=O)c2c(C)noc2C)CC1,14.8
19,Nc1ccc(N=Nc2ccccc2)c2cccnc12,9.03
20,O=C(Nc1ccc2c(c1)C(=O)NC2=O)c1cccc(Cl)c1,19
21,Cc1cc(=O)oc2cc(OC(C)C(=O)Nc3ccc(N4CCCCC4)cc3)ccc12 (stereo not drawn),13.9
22,O=C(CCc1nnc2n(CCc3ccccc3)c(=O)c3ccccc3n12)NCCCN1CCCCC1,-9.25

row,SMILES,"hERG current change (%, negative = inhibition) at 1uM [%]"
1,Cc1cc(=O)cc(C)[nH]1,6.43
2,CC(C)S(=O)(=O)c1csc(NC(=O)Nc2cc(Cl)ccc2Cl)c1Cl,5.66
3,Cc1nn(Cc2ccccc2Cl)c(C)c1N,6.88
4,Cc1ccc(C(=O)OCC(=O)Nc2cccc(S(=O)(=O)NC3=NCCCCC3)c2)c(C)c1,-0.902
5,CCOC(=O)c1cn(Cc2ccc(Cl)cc2Cl)c2cc(C)nn2c1=O,3.57
6,O=S(=O)(c1ccc(F)cc1)n1ccc(-c2cccc(OCc3ccc(Cl)cc3Cl)c2)n1,7.38
7,CCCCCCCCCCCCCCCC[n+]1cccc2ccccc21.[I-],-23
8,C/C(=N\S(=O)(=O)c1ccc(C)cc1)N(C)C,12.6
9,O=S(=O)(CCN1CCOCC1)c1ccccc1,7.33
10,CN(Cc1cccc(F)c1)C(=O)CN1C(=O)NC2(CCc3ccccc32)C1=O (stereo not drawn),14.2
11,CC(=O)c1ccc(Oc2nc3c(c(=O)n(C)c(=O)n3C)n2C)cc1,9.43
12,CCN(CC(=O)NCc1ccc(F)cc1)Cc1nc2cc(Cl)ccc2c(=O)[nH]1,-52.5
13,O=C(COC(=O)CNC(=O)C1CCCCC1)Nc1ccc(Cl)cc1F,1.46
14,O=C1CN(c2ccccc2F)C(=O)CN1c1ccccc1F,9.56
15,CCOc1ccc2nc(NC(=O)CSC3=NCCS3)sc2c1,8.79
16,COc1ccc(C(=O)N/C(=C\c2cn(S(=O)(=O)N(C)C)c3ccccc23)C(=O)NCCCn2ccnc2)cc1,11.4
17,CC(C)CCNC(=O)Cc1c(C(=O)O)[nH]c2ccc(Cl)cc12,8.35
18,Cc1ccc(CNc2ccc(N3CCOCC3)c(C(=O)O)c2)s1,-8.35
19,CCCCOC(=O)N/N=C/C=C/c1ccccc1,-0.0129
20,CCn1cc(C(=O)NCCCOC)c(=O)c2cc(S(=O)(=O)N(C)C)ccc21,15.2
21,COc1ccc(/C=C2/SC(=O)N(CCNC(=O)C3CCCN3C(=O)c3cccs3)C2=O)cc1 (stereo not drawn),8.92
